# Test results as given in PubChem BioAssay (NCI).
#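 In this assay, cells in 96-well plates receive the compound at five concentrations for 48 hours. Endpoints are linearly interpolated between the surrounding concentrations. The concentration for 50% growth inhibition is given as GI50. At the TGI there is no net growth.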
# System: NCI-H322M lung
# Experiment: growth of human tumour cells (NCI), 48 h
Compound,TGI,GI50
CC1(c2nc3ccccc3[nH]2)CCC(C#N)C(C)(C)O1 (stereo not drawn),> 100 µM,
O=c1sc(Nc2ccc3ccccc3c2Cl)nc2ccccc12,> 100 µM,
O=C(NC1CCN(Cc2ccccc2)CC1)c1cccc(I)c1,> 100 µM,
CON=C1C[C@]2(C[C@@H]3C[C@@H](C/C=C(\C)C[C@@H](C)/C=C/C=C4\CO[C@@H]5[C@H](O)C(C)=C[C@@H](C(=O)O3)[C@]45O)O2)O[C@H](/C(C)=C/C(C)C)[C@H]1C,28 µM,14.5 µM
CC12CCCC(C#N)(C1)OC2=O (stereo not drawn),> 100 µM,
N#CC(c1ccccc1)N(CCc1ccccc1)C(=O)c1ccc(C(=O)N(CCc2ccccc2)C(C#N)c2ccccc2)cc1 (stereo not drawn),84.1 µM,
Fc1cc(C2=Nn3c(CNc4ccc(Cl)cc4)nnc3S/C2=C\c2ccc(-c3ccc(Cl)cc3)o2)c(Cl)cc1Cl,> 100 µM,
C=CCOC1CC(n2cnc3c(N)ncnc32)OC1CO (stereo not drawn),> 100 µM,
O=CC1CCC=CC1NC(=O)OCc1ccccc1 (stereo not drawn),> 100 µM,
Clc1ccc(C2CC(c3cccc(Nc4ccncc4)c3)=NN2c2ccccc2)cc1 (stereo not drawn),2.91 µM,1.57 µM
N#CC(NNC(=O)c1c(Cl)c(Cl)c(Cl)c(Cl)c1-c1nc2ccc(C(=O)c3ccccc3)cc2[nH]1)c1ccccc1 (stereo not drawn),> 100 µM,
CC1=NNC(=O)C1C1CC(c2c[nH]c3ccccc23)=NN(c2ccccc2)C1=O (stereo not drawn),> 100 µM,
CCOC(=O)C1=C(C)NC(C)=C(C(=O)OCCNC(=O)c2ccc(N=[N+]=[N-])cc2)C1c1ccccc1C(F)(F)F (stereo not drawn),> 31.6 µM,
O=C1c2cccc([N+](=O)[O-])c2C(=O)c2nccnc21,4.05 µM,
O=[N+]([O-])c1ccc(Cc2nc3cc4ccccc4cc3[nH]2)cc1C(F)(F)F,35.1 µM,
COc1ccc2nc3cc(Cl)ccc3c(NCCNCC(O)CO)c2c1 (stereo not drawn),7.51 µM,1.48 µM
N.N.N.N.N.N#Cc1nn[n-]n1.[Cl-].[Co+3],> 100 µM,> 100 µM
CC1(C)CCCC2CC2CCC(C)(C)C1=O (stereo not drawn),> 100 µM,
CC(C)(C)CNCCCNc1ccc(Cl)cc1,> 100 µM,
CSCCC(NC(=O)Cc1ccc(C(=O)c2ccccc2)cc1)C(=O)N1CCN(CCCCN2c3ccccc3Sc3cc(N=[N+]=[N-])ccc32)CC1 (stereo not drawn),> 100 µM,
COc1ccc(C[n+]2cccc(O)c2)cc1,> 100 µM,
COC(=O)CNC(=O)CNC(=O)CSc1nnc(COc2ccc(Cl)cc2)n1-c1ccccc1,> 100 µM,
O=C(CC(Cc1ccccc1)c1ccc(Oc2ccccc2)cc1)Nc1cccc(Cl)c1 (stereo not drawn),> 100 µM,
CS(=O)(=O)O[C@H]1C(=O)N(c2cc3c4ccccc4ccc3c3ccccc23)[C@@H]1c1ccccn1,> 100 µM,16 µM
NS(=O)(=O)c1ccc(N=Nc2c(O)[nH]c3ccc(C(=O)NCCc4cnc[nH]4)cc23)cc1,> 25 µM,> 25 µM
NC1=NCC(CN2CCCCC2)O1 (stereo not drawn),> 100 µM,

Compound,TGI,GI50
O=C(O)C1CC(C2CCCCN2)CN2CCCCC12 (stereo not drawn),> 100 µM,
Cc1ccc(NC(=O)CCc2nnc3s/c(=C\c4cccc([N+](=O)[O-])c4)c(=O)n23)cc1,> 100 µM,
CCC1(OC(=O)CNC)C(=O)OCc2c1cc1n(c2=O)Cc2cc3ccccc3nc2-1 (stereo not drawn),1.57 µM,
Cc1cccc2c(N)c3cccc(C(=O)NCC[N+](C)(C)Cc4ccc(S(C)(=O)=O)cc4)c3nc12,> 100 µM,
O=C1C(Cl)=C(Cl)C(=O)N1c1ccccc1Cl,> 100 µM,
O=C(Nc1ccn(C2CC(I)C(COC(c3ccccc3)(c3ccccc3)c3ccccc3)O2)c(=O)n1)c1ccccc1 (stereo not drawn),> 31.6 µM,
O=C(Nc1ccccc1)n1cc(-c2ccccn2)c(N2CCOCC2)n1,> 100 µM,
CC(C)(Oc1ccc(C(=O)c2ccc(Cl)cc2)cc1Cl)C(=O)N1CCN(CCO)CC1,> 10 µM,
CCOC(=O)NC(=O)c1cn(CCCCCCCCCCC(=O)NCCCN2CCN(CCCNC(=O)CCCCCCCCCCn3cc(C(=O)NC(=O)OCC)c(=O)[nH]c3=O)CC2)c(=O)[nH]c1=O,> 100 µM,
CC1NC(C(=O)O)Cc2cc(O)c(O)cc21 (stereo not drawn),> 100 µM,
C[C@@H](Oc1ccc(Oc2cnc3ccc(Cl)cc3n2)cc1)C(=O)O,> 100 µM,
O=C1Nc2ccc(O)cc2/C1=C\c1ccncc1,25.9 µM,11.9 µM
CCOc1ccc(N2C(=O)NC3(c4ccccc4)N(C)C(=O)N(C)C23c2ccccc2)cc1 (stereo not drawn),> 100 µM,
COc1ccc(C2=NN(C=O)C(c3ccc(OS(=O)(=O)c4ccc(C)cc4)c(OC)c3)C2)cc1 (stereo not drawn),> 100 µM,> 100 µM
N#CC(C#N)=Cc1ccc(C(O)P(=O)(O)O)cc1 (stereo not drawn),> 100 µM,
Brc1c2c(c(Br)c3nsnc13)N=S=N2,> 100 µM,
CC(C)C1CC(CO)(CNc2nc(N)nc(Cl)c2/C=N\O)C1 (stereo not drawn),12.7 µM,
COC(O)C(=O)c1c2c(cc3c1CCC3)CCC2 (stereo not drawn),> 100 µM,
O=C(COc1cccc(/C=C2\COc3ccccc3C2=O)c1)c1ccccc1,59.5 µM,19.4 µM
CCC(CC)c1cc(N[C@H]2CC[C@H](N)C2)n2nccc2n1,> 100 µM,2.6 µM
CN1C(=O)N/C(=C\c2ccc(S(=O)(=O)N/N=C/c3ccccc3)cc2)C1=O,> 100 µM,
CNCCCn1c2c(c3ccc(Cl)cc3c1=O)C(=O)c1cc(OC)cnc1-2,2.54 µM,1.28 µM
O=C[C@]12CC=C3OC4OC5(CCCCC5)OC4[C@H]3[C@H]1C(=O)C=CC2=O (stereo partly drawn),> 100 µM,
COc1ccc(C(=O)N2CCN(c3ccc4c(c3)OCC(=O)N4)CC2)cc1OC,> 100 µM,
O=[N+]([O-])c1ccc(NNN=Nc2ccc(-c3nc4ccccc4[nH]3)cc2)c([N+](=O)[O-])c1,> 100 µM,
COC(C)(C)[C@@H]1CCCN1C1=C(C)C(=O)OC1,> 100 µM,
